# Test results: paper PMC4336329 (PLoS ONE, 2015)
# Screen size: about 310,000 compounds; about 14,000 (4.5%) showed an effect of 50% or more. Effects have a minus sign here. The list shows a part of the results.
# Target: human ether-à-go-go-related gene (hERG) potassium channel (human, UniProt Q12809)
# Assay: primary screen, population patch clamp on CHO cells stably expressing hERG
# 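Also: peak tail current of the secondary pulse compared with the same well before compound.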
# Chain of human ether-à-go-go-related gene (hERG) potassium channel (Q12809 whole entry, looked up): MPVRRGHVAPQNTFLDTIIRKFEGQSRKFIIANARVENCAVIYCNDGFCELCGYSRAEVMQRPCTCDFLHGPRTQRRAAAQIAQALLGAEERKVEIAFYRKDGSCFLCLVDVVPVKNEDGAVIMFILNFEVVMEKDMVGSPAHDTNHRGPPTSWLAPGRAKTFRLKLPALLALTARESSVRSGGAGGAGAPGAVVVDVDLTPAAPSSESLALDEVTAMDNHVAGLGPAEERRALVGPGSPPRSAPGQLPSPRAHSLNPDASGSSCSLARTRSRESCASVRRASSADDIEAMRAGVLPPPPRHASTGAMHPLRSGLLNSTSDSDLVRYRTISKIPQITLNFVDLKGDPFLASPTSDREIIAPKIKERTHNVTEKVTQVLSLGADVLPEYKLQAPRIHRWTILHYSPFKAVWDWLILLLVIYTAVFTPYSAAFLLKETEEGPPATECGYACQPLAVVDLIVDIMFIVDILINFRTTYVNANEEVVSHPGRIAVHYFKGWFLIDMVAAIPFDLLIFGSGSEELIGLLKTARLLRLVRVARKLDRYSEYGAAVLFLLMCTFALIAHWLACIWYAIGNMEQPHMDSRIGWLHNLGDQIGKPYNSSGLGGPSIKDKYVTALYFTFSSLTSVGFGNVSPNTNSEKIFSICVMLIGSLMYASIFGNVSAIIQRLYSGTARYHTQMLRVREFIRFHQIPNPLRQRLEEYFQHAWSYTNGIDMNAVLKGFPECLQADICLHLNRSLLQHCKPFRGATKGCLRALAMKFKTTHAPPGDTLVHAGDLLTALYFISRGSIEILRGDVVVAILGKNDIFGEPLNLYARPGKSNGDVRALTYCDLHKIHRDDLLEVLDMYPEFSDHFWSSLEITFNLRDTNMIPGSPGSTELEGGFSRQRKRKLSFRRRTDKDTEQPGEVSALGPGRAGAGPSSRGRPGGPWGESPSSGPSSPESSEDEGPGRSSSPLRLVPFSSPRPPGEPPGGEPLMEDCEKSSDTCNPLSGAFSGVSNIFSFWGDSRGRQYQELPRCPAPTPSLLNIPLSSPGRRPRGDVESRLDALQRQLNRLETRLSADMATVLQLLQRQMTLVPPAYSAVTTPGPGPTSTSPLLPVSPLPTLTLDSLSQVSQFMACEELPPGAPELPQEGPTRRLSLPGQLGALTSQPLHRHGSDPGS
row,Structure (SMILES),"hERG current change (%, negative = inhibition) at 10uM [%]"
1,N#CC1=C(N)Oc2n[nH]c(-c3cccs3)c2C1c1cccnc1 (centres unmarked),1.87
2,COC(=O)[C@H](Cc1ccccc1)NC(=O)O[C@@H]1C(=O)c2cc(Br)ccc2O[C@H]1c1cccc(OC)c1,13
3,CC(=O)c1ccc(NS(=O)(=O)c2ccc(-c3cnc(C4CC4)o3)cc2)cc1,2.03
4,Cc1cccc(OCC(=O)NNC(=O)CCCCC(=O)NNC(=O)COc2cccc(C)c2)c1,8.19
5,O=C(NC1CC1)C1CCN(S(=O)(=O)c2cc([N+](=O)[O-])ccc2Cl)CC1,-28
6,COc1ccc(C(=O)c2cc3c(cc2[N+](=O)[O-])OCCO3)cc1,-12.7
7,CC(C)CN(C(=O)c1ccc2c(c1)OCCO2)c1c(N)n(Cc2ccccc2)c(=O)[nH]c1=O,1.66
8,COc1ccc(NC(=O)Nc2ccccc2)cc1S(=O)(=O)N1CCCCC1,19.1
9,O=C(CCCc1c[nH]c2ccccc12)NCc1ccccc1F,-18.8
10,CCOC(=O)c1c(/N=C/c2cccc(C)c2O)sc2c1CCN(C)C2,-28.3
11,CCCN1C(=O)c2ccc(C(=O)NCc3ccco3)cc2C1=O,-8.99
12,Cc1ccc2nc(-c3ccc(NC(=O)CN4CCN(c5ccccn5)CC4)cc3)sc2c1,9.23
13,COc1ccccc1C(=O)NCCc1c(C)[nH]c2c(C)ccc(F)c12,0.109
14,CCOC(=O)C1CCN(C(=O)c2cc3ccc(OC)cc3[nH]2)CC1,12.5
15,COc1ccc(C(=O)NC(=S)N2CCCC2)cc1,-14.7
16,NC(=O)c1ccsc1NC(=O)CSc1nnc(C2CC2)n1Cc1ccccc1,-17.4
17,COc1ccc(C(=O)/C=C/c2cccs2)c(OC(=O)c2cccc([N+](=O)[O-])c2)c1,5.34
18,C=C(C)c1cccc(C(C)(C)NC(=O)N2CCN(c3ncccn3)CC2)c1,0.0429
19,CCCCN(CCCC)S(=O)(=O)c1ccc2[nH]c(=O)[nH]c2c1,-6.47
20,COc1ccccc1N1CCN(C(c2cccs2)C(C)NC(=O)c2ccco2)CC1 (centres unmarked),-1.73
21,Cc1ccc(-c2nc3cc(NC(=O)C(C)C)ccc3o2)cc1C,-0.795
22,CCOc1cc(S(=O)(=O)Nc2ccc(Cl)cn2)ccc1Cl,5.67

row,Structure (SMILES),"hERG current change (%, negative = inhibition) at 10uM [%]"
1,C/C(=C\c1ccco1)C1C(C#N)=C(N)OC2=C1C(=O)CC(C)(C)C2 (centres unmarked),-24.4
2,O=C(NC1CCCCCC1)C1CCC(CNS(=O)(=O)c2ccc(Br)s2)CC1 (centres unmarked),19.7
3,COc1ccc(Cl)cc1C(=O)NNC(=S)NC(=O)/C=C/c1ccco1,16.9
4,CCO[C@@H]1OC(C(=O)N2CCN(Cc3ccc4c(c3)OCO4)CC2)=C[C@H](c2coc3ccccc3c2=O)[C@H]1CCCO,-33.6
5,Cc1nc2ccccc2c(=O)n1-c1ccc(NS(=O)(=O)c2cc(F)ccc2F)cc1,-11.7
6,O=C(N/N=C/c1cn(CC(=O)N2CCOCC2)c2ccccc12)c1cccnc1,16.3
7,COc1ccccc1C1C(C(C)=O)=C(O)C(=O)N1c1ccc(O)cc1 (centres unmarked),-17.5
8,COc1ccccc1NS(=O)(=O)c1ccc(NC(=O)c2[nH]nc(OC)c2[N+](=O)[O-])cc1,-0.642
9,O=C(O)Cc1ccc(N=Nc2c(O)c(C(=O)O)cc3ccccc23)cc1,19.8
10,N#Cc1ccccc1NC(=S)NC(=O)c1cccs1,14.5
11,O=S1(=O)CC2N=C(N(Cc3c(F)cccc3Cl)c3ccccc3F)SC2C1 (centres unmarked),4.06
12,Cc1ccc(C)c(C(=O)NC(C)CCc2ccccc2)c1 (centres unmarked),5.55
13,COc1ccc(N(CCC#N)C(=O)/C(C#N)=C\c2cccs2)cc1,6.23
14,CCOC(=O)C1(Cc2cccc(OC)c2)CCN(Cc2cccc(OC)c2O)CC1,-66
15,COC(=O)c1ccccc1NC(=O)CSc1nc(N)cc(N)n1,-1.54
16,CCc1ccc(CNC(=O)CCCn2c(=O)c3cccn3c3cccnc32)cc1,-26.2
17,COc1ccc(-c2nn(-c3ccccc3)cc2C(=O)O)cc1OC,8.88
18,Brc1ccc(Oc2ncc(CN3CCOCC3)s2)cc1,-19.4
19,Cc1cccc(C)c1NC(=O)COC(=O)c1c2c(nc3ccccc13)/C(=C\c1ccc3c(c1)OCO3)CCC2,-6.69
20,COc1cc(OC)cc(C(=O)O/N=C(\N)c2cccc(C)c2)c1,2.05
21,COc1ccc(NC(=O)CN(C)C(=O)C(Sc2ccccc2)c2ccccc2)cc1 (centres unmarked),-19.6
22,Cc1cc(=O)n2[nH]c(-c3ccc(C(C)(C)C)cc3)cc2n1,-3
